Some of the results follow. The energies were worked out here from pooled read counts, against the library average; single values are noisy.
What follows are sequences tested against T1, Pho4 (S. cerevisiae) (UniProt P07270) (assay: relative binding free energy (BET-seq); higher = weaker binding). Conditions: reference: library average.
T1 sequence: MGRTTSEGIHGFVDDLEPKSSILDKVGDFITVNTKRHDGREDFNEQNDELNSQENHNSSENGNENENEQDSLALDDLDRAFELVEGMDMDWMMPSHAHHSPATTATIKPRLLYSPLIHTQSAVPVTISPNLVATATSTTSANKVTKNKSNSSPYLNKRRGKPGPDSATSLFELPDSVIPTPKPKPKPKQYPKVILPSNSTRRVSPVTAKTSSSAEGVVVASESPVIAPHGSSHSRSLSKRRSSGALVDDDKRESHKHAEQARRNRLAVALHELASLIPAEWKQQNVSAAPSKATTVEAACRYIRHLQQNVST

| Sequence | relative binding free energy [kcal/mol] |
| --- | --- |
| ATTAGCACGTGGACGT | 0.03 |
| AGATGCACGTGTAAGT | 0.06 |
| GTTTGCACGTGTTGGT | 0.08 |
| CTTTACACGTGGTAAT | 0.01 |
| AGTCGCACGTGTGGTT | 0.1 |
| TTGAGCACGTGTAGAA | -0.04 |
| GAGTTCACGTGTAGGG | 0.35 |
| AGTTACACGTGGAAGG | 0.06 |
| TTGTACACGTGGTACA | -0.07 |
| AGATTCACGTGCGGAG | 0.18 |
| TGGCGCACGTGTCAGG | -0.06 |
| TGAGGCACGTGCTGTA | -0.16 |
| TGGAGCACGTGGCGAT | -0.21 |
| TGTAACACGTGGGGAA | -0.05 |
| TGATTCACGTGCTGAG | 0.25 |
| CTAAGCACGTGTGGTT | -0.18 |
| TGACGCACGTGTTGAT | -0.08 |
| TTTGTCACGTGTGTGA | 0.15 |
| GGCGTCACGTGTTGGA | 0.25 |
| GGGGGCACGTGGTACC | -0.08 |
| AGAGGCACGTGTGAAT | 0.03 |
| GGTTTCACGTGTGAAA | 0.28 |
| GGTTCCACGTGAGATT | 0.38 |

| Sequence | relative binding free energy [kcal/mol] |
| --- | --- |
| AAGGGCACGTGTTCTT | -0.19 |
| AGGTCCACGTGGATGG | 0.13 |
| TGATGCACGTGGGGCA | -0.29 |
| AGGCACACGTGTGTGT | 0.11 |
| GACGTCACGTGTGTGT | 0.14 |
| TGAATCACGTGGCAGG | 0.03 |
| CAAGGCACGTGGAGTA | -0.02 |
| GAGCGCACGTGTGTGG | -0.03 |
| GGCGTCACGTGGGGAC | -0.09 |
| GATTTCACGTGGACTT | 0.34 |
| TGGGCCACGTGTCGTG | -0.13 |
| AGAGTCACGTGGGTTT | 0.02 |
| ATGTCCACGTGTTGGG | -0.02 |
| TTAGGCACGTGGTAGA | -0.18 |
| GGGCACACGTGTTTAT | 0.12 |
| GCTGCCACGTGCGGGG | -0.18 |
| TGTGGCACGTGAAGGA | 0.17 |
| TCGAACACGTGGAGTG | 0.12 |
| TTTTGCACGTGGCCGT | -0.13 |
| TGATACACGTGTGAAG | 0.15 |
| CGCGACACGTGGGGGC | -0.11 |
| GATATCACGTGCTGGG | 0.21 |
| GAGTTCACGTGTTGCT | 0.18 |

| Sequence | relative binding free energy [kcal/mol] |
| --- | --- |
| GATCTCACGTGGTGGG | 0.21 |
| GGACGCACGTGGTTAA | 0.06 |
| GGGATCACGTGCTGTG | 0.03 |
| TATTCCACGTGTAGTG | 0.14 |
| AATAACACGTGGGAGG | -0.16 |
| TTGTCCACGTGTTGAA | 0.04 |
| AATGGCACGTGTCTGG | -0.07 |
| TTGTGCACGTGTTTAG | 0.04 |
| CGCAGCACGTGGGTGG | -0.2 |
| AGGTGCACGTGATACG | -0.1 |
| TAAAGCACGTGAGGGA | 0.13 |
| TGTTGCACGTGTTTCA | -0.01 |
| ACTATCACGTGGGTGT | -0.04 |
| GTAGGCACGTGAGAGA | 0.21 |
| GCAGGCACGTGAGTTG | 0.13 |
| ATTAGCACGTGAGGGT | 0.07 |
| AGGACCACGTGGGTAG | -0.15 |
| TAATGCACGTGGCGCG | -0.05 |
| AGATACACGTGTAAGT | 0.2 |
| CGGGTCACGTGAGGTA | 0.36 |
| TTGAGCACGTGGGATT | -0.13 |
| TGGTGCACGTGGACGT | -0.03 |
| GGTTTCACGTGCACGG | 0.26 |

| Sequence | relative binding free energy [kcal/mol] |
| --- | --- |
| TATGGCACGTGTTTCT | -0.03 |
| GAGAGCACGTGAGGAG | 0.23 |
| GGTATCACGTGCGAGT | 0.21 |
| CTGACCACGTGAGGGG | 0.23 |
| ATGTTCACGTGCTATA | 0.13 |
| ATCTTCACGTGTGGTG | 0.28 |
| ATTTTCACGTGGATGG | 0.27 |
| TTGCGCACGTGAATGT | 0.17 |
| TTATACACGTGAGGTA | 0.17 |
| CTAATCACGTGATGGT | 0.32 |
| CGTTGCACGTGATGGT | 0.01 |
| ATGGACACGTGCCGGT | 0 |
| ATGTGCACGTGAATTG | 0.25 |
| TTTCGCACGTGTGTCT | 0.03 |
| GTTTACACGTGTATAT | 0.21 |
| CATTTCACGTGTATGA | 0.29 |
| TAAAGCACGTGGGTCT | -0.19 |
| GTGCACACGTGGTGTG | -0.02 |
| AGGTACACGTGAAGTT | 0.36 |
| CGAAACACGTGGTGGG | -0.11 |
| TGATTCACGTGGGTGA | 0.07 |
| TTTTGCACGTGAAACT | 0.21 |
| TCAGCCACGTGAGGTG | 0.21 |

| Sequence | relative binding free energy [kcal/mol] |
| --- | --- |
| TGTACCACGTGGCGGT | -0.22 |
| ATAATCACGTGATGTT | 0.24 |
| ACGTGCACGTGTGTTT | -0.03 |
| TTAATCACGTGTGCAG | 0.1 |
| CGGGTCACGTGGTATG | 0.08 |
| GTATGCACGTGGGGTT | -0.08 |
| GATTTCACGTGAGTGC | 0.3 |
| GGGCTCACGTGCCGGT | 0.28 |
| GCTAGCACGTGCGGGT | -0.1 |
| CGTCGCACGTGTGGGT | -0.13 |
| TTGGCCACGTGCTGGT | -0.24 |
| TTCGTCACGTGGATTA | 0.09 |
| TATTTCACGTGAGGGC | 0.42 |
| TACGTCACGTGGTTAG | 0.05 |
| TTGTACACGTGTGTGG | 0.09 |
| TTGGACACGTGCTTTG | -0.01 |
| AGGGGCACGTGGCGCG | -0.23 |
| CGGTTCACGTGAGCTT | 0.46 |
| GTAATCACGTGTTAAT | 0.29 |
| AAAGACACGTGGTGGT | 0.05 |
| AGTGACACGTGTTATT | -0.03 |
| TATTTCACGTGTTCGA | 0.33 |
| TTATGCACGTGTCGGT | 0.06 |

— the BET-seq Pho4 binding data (Le et al. 2018)
